# Results taken from PubChem BioAssay AID1508642 (National Center for Advancing Translational Sciences (NCATS), 2021).
# The campaign covered roughly 43,000 compounds. About 200 (0.47%) were called active. Roughly 12% stayed inconclusive and do not appear here. The call rests on the fitted dose curve; in most records, active means well fitted cell-killing curve with a large enough effect; inconclusive means small, poorly fitted or top-dose-only effect, or effect the other way; inactive means flat fitted curve, though single readings scatter. Some of the results follow.
# Assay: Cell viability qHTS assay in S16 Pmp22-F2sN cells; further: nearly all actives have a fitted effect of over 65% in size
# Settings: S16 Pmp22-F2sN Schwann cells viability, CellTiter-Glo, 24 h; series mostly up to 57.5 µM; activity change, negative = cytotoxicity: at the top concentration
# Method in brief: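 Used to flag compounds lowering reporter output through toxicity, this quantitative HTS measures ATP-based CellTiter-Glo luminescence in S16 Pmp22-F2sN Schwann cells after 24 h compound exposure at 37C.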
# On the % scale 0 is the no-effect control and ±100 the full control effect; potency means the concentration at half of the fitted maximal effect.
Structure (SMILES),"activity change, negative = cytotoxicity",Potency
COc1ccc(NC(=O)CSc2nccn2C2CCCC2)cc1OC,inactive: -23.5%,
COc1ccc(-c2cn3nc(N4CCCC(C(=O)Nc5ccccc5F)C4)sc3n2)cc1 (stereo not given),inactive: 6.83%,
CCCCN(CCCNC(=O)c1cc(Nc2ccc(OC)cc2OC)nc2ccccc12)Cc1ccccc1,inactive: -21.8%,
CCCCOC(=O)c1ccc(NC(=O)C2(c3cccs3)CCOCC2)cc1,inactive: 19.5%,
CCOC(=O)c1c(NC(=O)CSc2cn(CCNC(=O)c3ccc(OC)cc3)c3ccccc23)sc2c1CCC2,inactive: 3.91%,
COc1ccc(NC(=O)CSc2nc(-c3ccccc3)cc(-c3cc(OC)c(OC)c(OC)c3)c2C#N)c(OC)c1,inactive: 17.6%,
COc1ccc(-c2nnc(SCC(=O)Nc3cccc(C)c3)s2)cc1,inactive: -6.77%,
CC(C)(Oc1ccc(Cl)cc1)C(=O)Nc1ccc(-c2nc3ncccc3o2)cc1,inactive: 19.8%,
COc1ccccc1N1CCN(S(=O)(=O)CCNC(=O)c2cc(=O)c3ccccc3o2)CC1,inactive: -16.3%,
Cc1ccc(Cn2cc(S(=O)(=O)c3ccccc3)c(=O)c3cc(F)c(N4CCOCC4)cc32)cc1,inactive: -22.9%,
Cn1ccc2cc(S(=O)(=O)N3CCN(C(=O)Nc4cccc(F)c4)CC3)ccc21,inactive: 0.65%,
COc1ccc(NC(=O)C(c2ccc(OC)cc2)N(C)C(=O)Cc2cccs2)cc1 (stereo not given),inactive: -9.99%,
Cc1ccc2c(CC(=O)Nc3ccc(S(=O)(=O)N4CCC(C)CC4)cc3)coc2c1,inactive: -0.875%,
CC1CCc2nc3ccc(S(=O)(=O)N4CCC(C(=O)NCc5ccccc5Cl)CC4)cc3c(C(=O)O)c2C1 (stereo not given),inactive: -1.2%,
Cc1nn(-c2ccccc2)c2c1N(CCCC(=O)NCc1ccc(OC(C)C)cc1)C(=O)CS2,,active: 10 µM
O=c1c2[nH]c3ccccc3c2nc(SCc2ccccc2F)n1-c1ccc(F)cc1,inactive: 6.74%,
CCCn1c2ccccc2c2cnn(CC(=O)Nc3ccccc3OC)c(=O)c21,inactive: -5.79%,
COC(=O)c1ccccc1NC(=O)Cn1nc(C)c2nn(-c3ccc(Cl)cc3)c(C)c2c1=O,inactive: -10.7%,
O=C(CSc1nc2c(c(=O)[nH]1)CN(Cc1ccc3c(c1)OCO3)CC2)Nc1cc(F)ccc1F,inactive: 5.63%,
Cc1ccccc1OCC(=O)Nc1ccc(OCc2cc(=O)n3ccccc3n2)cc1,inactive: 0.225%,
Cc1ccc(CNC(=O)c2ccc3oc(=O)n(Cc4ccccc4)c3c2)cc1,inactive: -2.84%,
COc1ccc(Cl)cc1NC(=O)C1CCCN(S(=O)(=O)c2ccc3c(c2)CCCC(=O)N3)C1 (stereo not given),inactive: -21.7%,
COC(=O)c1ccc(NC(=O)c2cc3cc(C)ccc3n2C)cc1,inactive: -6.04%,
COc1ccc(NC(=O)CSc2nc3ccccc3n2CC(=O)NCc2ccc(F)cc2)cc1,inactive: -9.04%,
COc1ccc(NC(=O)c2ccc(-c3nc(COc4ccccc4)c(C)o3)cc2)cc1,inactive: -1.38%,
